Experimental findings from article PMC10110421 are described below.

The target of experiment [1] is mCherry-fused IFT54(1–134) (human) (UniProt Q8TDR0). Description: co-IP; VIP assay and immunoblotting: lysates (HMDEKN buffer) of HEK293T cells co-expressing EGFP- and mCherry-fused proteins, precipitated with GST-tagged anti-mCherry nanobody (LaM-2) on glutathione–Sepharose beads. A general note: A western blot detects proteins with antibodies after separation by electrophoresis.

The target in experiment [2] is mCherry-fused IFT54(135–625) (human) (UniProt Q8TDR0). The experiment is described as above.
Experiment [3] addresses mCherry–IFT54 (full-length IFT54 construct) (human) (UniProt Q8TDR0). The experiment is described as above.
Experiment [4] deals with mCherry-fused IFT54(1–334) (human) (UniProt Q8TDR0). The experiment is described as above.
For experiment [5], the target named is EGFP-fused WDR60(523–1066) (human) (UniProt Q8WVS4). Nature of the experiment: co-IP; VIP assay and immunoblotting: lysates (HMDEKN buffer) of HEK293T cells co-expressing EGFP- and mCherry-fused proteins, precipitated with GST-tagged anti-GFP nanobody on glutathione–Sepharose beads; red signal on beads, then blots with anti-mCherry and anti-GFP.
For experiment [6], the target named is mCherry-fused IFT54(533–625) (human) (UniProt Q8TDR0). Description: co-IP; VIP assay and immunoblotting: lysates (HMDEKN buffer) of HEK293T cells co-expressing EGFP- and mCherry-fused proteins, precipitated with GST-tagged anti-mCherry nanobody (LaM-2) on glutathione–Sepharose beads.
Another experiment concerns the target EGFP-fused WDR34 (UniProt Q96EX3). Nature of the experiment: co-IP; VIP assay and immunoblotting: lysates (HMDEKN buffer) of HEK293T cells co-expressing EGFP- and mCherry-fused proteins, precipitated with GST-tagged anti-GFP nanobody on glutathione–Sepharose beads; red signal on beads, then blots with anti-mCherry and anti-GFP.
The target in experiment [7] is EGFP–WDR60 (wild type, full-length construct) (human) (UniProt Q8WVS4). The description is as above.
The target of a further experiment is EGFP–DYNC2LI1 (UniProt Q8TCX1). The description is as above.

Results are given in words; binding and its absence hold for the method and conditions named. In cells and extracts the contact can be indirect. Some results given as binding are weak or reduced against the parent protein; the word gives no strength. For some of these results: Tags and fused reporters may be left off the sequences shown.

Consider “EGFP–WDR60 (wild type, full-length construct) (from UniProt Q8WVS4 1-1066)”, for which the binding result in [1] is “binds”; in experiment [2], “no binding”; in experiment [3] it was “binds”; in experiment [4], “binds”.
On to “mixture of mCherry-fused DYNLRB1 and DYNLRB2 (co-expressed) (from UniProt Q9NP97 1-96; Q8TF09 1-96) (complex)”, for which, in [5], the binding entry is on record as “binds weakly”.
Take EGFP-IFT20 (from UniProt Q8IY31 1-132): the binding result in experiment [3] and in experiment [6] was “binds” throughout.
Turning to “mCherry–IFT172 (from UniProt Q9UG01 1-1749)”, the binding entry (in the experiment with EGFP-fused WDR34; in experiment [7]; in the experiment with EGFP–DYNC2LI1) was “binds” in each case.
